Source: the supplement of paper PMC8728848
The list shows a part of the results.

Tests used:
Assay in all cases: glycan array binding signal (z-score within array); higher = stronger binding
Details in all cases: glycan notation: IUPAC condensed, linker removed
[1] = target: Neu5Ac(a2-3)Gal(b1-4)[Fuc(a1-3)]GlcNAc
How it was run: (§1)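 Arrays were curated from the Consortium for Functional Glycomics database, 3228 in total, and kept only where the protein sequence was available. Binding is expressed as a within-array Z-score. This score was averaged across arrays of the same protein sequence at different concentrations or buffers and across linkers, and negative values can be read as non-binding.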

[2] = target: Neu5Ac(a2-3)Gal(b1-4)[Fuc(a1-3)]GlcNAc(b1-3)Gal
How it was run: as §1

[3] = target: Neu5Ac(a2-3)Gal(b1-4)[Fuc(a1-3)]GlcNAc(b1-3)Gal(b1-4)GlcNAc
How it was run: as §1

[4] = target: Neu5Ac(a2-3)Gal(b1-4)[Fuc(a1-3)]GlcNAc(b1-3)Gal(b1-4)[Fuc(a1-3)]GlcNAc(b1-3)Gal(b1-4)[Fuc(a1-3)]GlcNAc
How it was run: as §1

[5] = target: Neu5Ac(a2-3)Gal(b1-4)[Fuc(a1-3)]GlcNAc(b1-6)[Gal(b1-3)]GalNAc
How it was run: as §1

[6] = target: Neu5Ac(a2-3)Gal(b1-4)[Fuc(a1-3)]GlcNAc6S
How it was run: as §1

[7] = target: Neu5Ac(a2-3)Gal6S(b1-4)GlcNAc
How it was run: as §1

[8] = target: Neu5Ac(a2-3)Gal6S(b1-4)[Fuc(a1-3)]GlcNAc
How it was run: as §1

Neu5Ac(a2-3)GalNAc = target: Neu5Ac(a2-3)GalNAc
How it was run: as §1

[9] = target: Neu5Ac(a2-3)GalNAc(b1-4)GlcNAc
How it was run: as §1

[10] = target: Neu5Ac(a2-3)[GalNAc(b1-4)]Gal(b1-4)Glc
How it was run: as §1

[11] = target: Neu5Ac(a2-3)[GalNAc(b1-4)]Gal(b1-4)GlcNAc
How it was run: as §1

[12] = target: Neu5Ac(a2-3)[Neu5Ac(a2-6)]GalNAc
How it was run: as §1

Neu5Ac(a2-6)Gal = target: Neu5Ac(a2-6)Gal
How it was run: as §1

Neu5Ac(a2-6)Gal(b1-4)Glc = target: Neu5Ac(a2-6)Gal(b1-4)Glc
How it was run: as §1

[13] = target: Neu5Ac(a2-6)Gal(b1-4)GlcNAc
How it was run: as §1

[14] = target: Neu5Ac(a2-6)Gal(b1-4)GlcNAc(b1-2)Man(a1-3)[Gal(b1-4)GlcNAc(b1-2)Man(a1-6)]Man(b1-4)GlcNAc(b1-4)GlcNAc
How it was run: as §1

[15] = target: Neu5Ac(a2-6)Gal(b1-4)GlcNAc(b1-2)Man(a1-3)[GlcNAc(b1-2)Man(a1-6)]Man(b1-4)GlcNAc(b1-4)GlcNAc
How it was run: as §1

[16] = target: Neu5Ac(a2-6)Gal(b1-4)GlcNAc(b1-2)Man(a1-3)[GlcNAc(b1-2)Man(b1-4)GlcNAc(b1-2)Man(a1-6)]Man(b1-4)GlcNAc(b1-4)GlcNAc
How it was run: as §1

[17] = target: Neu5Ac(a2-6)Gal(b1-4)GlcNAc(b1-2)Man(a1-3)[Neu5Ac(a2-6)Gal(b1-4)GlcNAc(b1-2)Man(a1-6)]Man(b1-4)GlcNAc(b1-4)GlcNAc
How it was run: as §1

[18] = target: Neu5Ac(a2-6)Gal(b1-4)GlcNAc(b1-2)Man(a1-6)[Gal(b1-4)GlcNAc(b1-2)Man(a1-3)]Man(b1-4)GlcNAc(b1-4)GlcNAc
How it was run: as §1

[19] = target: Neu5Ac(a2-6)Gal(b1-4)GlcNAc(b1-2)Man(a1-6)[GlcNAc(b1-2)Man(a1-3)]Man(b1-4)GlcNAc(b1-4)GlcNAc
How it was run: as §1

[20] = target: Neu5Ac(a2-6)Gal(b1-4)GlcNAc(b1-3)Gal(b1-4)GlcNAc
How it was run: as §1

[21] = target: Neu5Ac(a2-6)Gal(b1-4)GlcNAc(b1-3)Gal(b1-4)[Fuc(a1-3)]GlcNAc(b1-3)Gal(b1-4)[Fuc(a1-3)]GlcNAc
How it was run: as §1

[22] = target: Neu5Ac(a2-6)Gal(b1-4)GlcNAc6S
How it was run: as §1

Neu5Ac(a2-6)GalNAc = target: Neu5Ac(a2-6)GalNAc
How it was run: as §1

[23] = target: Neu5Ac(a2-6)GalNAc(b1-4)GlcNAc
How it was run: as §1

Neu5Ac(a2-8)Neu5Ac = target: Neu5Ac(a2-8)Neu5Ac
How it was run: as §1

[24] = target: Neu5Ac(a2-8)Neu5Ac(a2-3)Gal(b1-4)Glc
How it was run: as §1

[25] = target: Neu5Ac(a2-8)Neu5Ac(a2-3)[GalNAc(b1-4)]Gal(b1-4)Glc
How it was run: as §1

[26] = target: Neu5Ac(a2-8)Neu5Ac(a2-8)Neu5Ac
How it was run: as §1

[27] = target: Neu5Ac(a2-8)Neu5Ac(a2-8)Neu5Ac(a2-3)Gal(b1-4)Glc
How it was run: as §1

[28] = target: Neu5Ac(a2-8)Neu5Ac(a2-8)Neu5Ac(a2-3)[GalNAc(b1-4)]Gal(b1-4)Glc
How it was run: as §1

[29] = target: Neu5Ac(a2-8)Neu5Ac(a2-8)Neu5Ac(a2-8)Neu5Ac(a2-3)[GalNAc(b1-4)]Gal(b1-4)Glc
How it was run: as §1

[30] = target: Neu5Ac(b2-6)Gal(b1-4)GlcNAc
How it was run: as §1

Neu5Ac(b2-6)GalNAc = target: Neu5Ac(b2-6)GalNAc
How it was run: as §1

[31] = target: Neu5Ac9Ac(a2-6)Gal(b1-4)GlcNAc
How it was run: as §1

[32] = target: Neu5Gc(a2-3)Gal(b1-3)GlcNAc
How it was run: as §1

[33] = target: Neu5Gc(a2-3)Gal(b1-3)[Fuc(a1-4)]GlcNAc
How it was run: as §1

Neu5Gc(a2-3)Gal(b1-4)Glc = target: Neu5Gc(a2-3)Gal(b1-4)Glc
How it was run: as §1

[34] = target: Neu5Gc(a2-3)Gal(b1-4)GlcNAc
How it was run: as §1

[35] = target: Neu5Gc(a2-3)Gal(b1-4)[Fuc(a1-3)]GlcNAc
How it was run: as §1

[36] = target: Neu5Gc(a2-6)Gal(b1-4)GlcNAc
How it was run: as §1

Neu5Gc(a2-6)GalNAc = target: Neu5Gc(a2-6)GalNAc
How it was run: as §1

[37] = target: Neu5Gc(b2-6)Gal(b1-4)GlcNAc
How it was run: as §1

B1: Ficolin A (Rattus norvegicus), Q9WTS8 (protein)
chain: MWWPMLWAFPVLLCLCSSQALGQESGACPDVKIVGLGAQDKVAVIQSCPSFPGPPGPKGEPGSPAGRGERGLQGSPGKMGPPGSKGEPGTMGPPGVKGEKGERGTASPLGQKELGDALCRRGPRSCKDLLTRGIFLTGWYTIYLPDCRPLTVLCDMDVDGGGWTVFQRRVDGSINFYRDWDSYKRGFGNLGTEFWLGNDYLHLLTANGNQELRVDLREFQGQTSFAKYSSFQVSGEQEKYKLTLGQFLEGTAGDSLTKHNNMAFSTHDQDNDTNGGKNCAALFHGAWWYHDCHQSNLNGRYLPGSHESYADGINWLSGRGHRYSYKVAEMKIRAS
glycan array binding signal (z-score) [1]: -0.07 | glycan array binding signal (z-score) [2]: -0.04 | glycan array binding signal (z-score) [3]: 0.009 | glycan array binding signal (z-score) [4]: -0.107 | glycan array binding signal (z-score) [5]: -0.048 | glycan array binding signal (z-score) [6]: -0.092 | glycan array binding signal (z-score) [7]: -0.033 | glycan array binding signal (z-score) [8]: -0.109 | glycan array binding signal (z-score) (Neu5Ac(a2-3)GalNAc): -0.087 | glycan array binding signal (z-score) [9]: -0.121 | glycan array binding signal (z-score) [10]: 0.265 | glycan array binding signal (z-score) [11]: -0.117 | glycan array binding signal (z-score) [12]: -0.1 | glycan array binding signal (z-score) (Neu5Ac(a2-6)Gal): -0.042 | glycan array binding signal (z-score) (Neu5Ac(a2-6)Gal(b1-4)Glc): -0.094 | glycan array binding signal (z-score) [13]: -0.048 | glycan array binding signal (z-score) [14]: 0.007 | glycan array binding signal (z-score) [15]: -0.108 | glycan array binding signal (z-score) [16]: 0.086 | glycan array binding signal (z-score) [17]: -0.029 | glycan array binding signal (z-score) [18]: -0.062 | glycan array binding signal (z-score) [19]: -0.102 | glycan array binding signal (z-score) [20]: -0.028 | glycan array binding signal (z-score) [21]: -0.078 | glycan array binding signal (z-score) [22]: -0.051 | glycan array binding signal (z-score) (Neu5Ac(a2-6)GalNAc): -0.084 | glycan array binding signal (z-score) [23]: -0.09 | glycan array binding signal (z-score) (Neu5Ac(a2-8)Neu5Ac): 0.58 | glycan array binding signal (z-score) [24]: -0.103 | glycan array binding signal (z-score) [25]: -0.068 | glycan array binding signal (z-score) [26]: -0.081 | glycan array binding signal (z-score) [27]: -0.087 | glycan array binding signal (z-score) [28]: -0.047 | glycan array binding signal (z-score) [29]: -0.064 | glycan array binding signal (z-score) [30]: 1.16 | glycan array binding signal (z-score) (Neu5Ac(b2-6)GalNAc): -0.055 | glycan array binding signal (z-score) [31]: -0.047 | glycan array binding signal (z-score) [32]: -0.028 | glycan array binding signal (z-score) [33]: -0.037 | glycan array binding signal (z-score) (Neu5Gc(a2-3)Gal(b1-4)Glc): -0.099 | glycan array binding signal (z-score) [34]: -0.087 | glycan array binding signal (z-score) [35]: -0.11 | glycan array binding signal (z-score) [36]: -0.031 | glycan array binding signal (z-score) (Neu5Gc(a2-6)GalNAc): -0.035 | glycan array binding signal (z-score) [37]: -0.107
